Data: article PMC3898904
These are yes or no findings as the source states them, for the method shown. Some results given as binding are weak or reduced against the parent protein; the word gives no strength. Where a sequence is shown, tags or fusion partners need not be part of it.

Protein sequences, listed by entry. Tags and fused reporters are not part of them.
UniProt Q94A79: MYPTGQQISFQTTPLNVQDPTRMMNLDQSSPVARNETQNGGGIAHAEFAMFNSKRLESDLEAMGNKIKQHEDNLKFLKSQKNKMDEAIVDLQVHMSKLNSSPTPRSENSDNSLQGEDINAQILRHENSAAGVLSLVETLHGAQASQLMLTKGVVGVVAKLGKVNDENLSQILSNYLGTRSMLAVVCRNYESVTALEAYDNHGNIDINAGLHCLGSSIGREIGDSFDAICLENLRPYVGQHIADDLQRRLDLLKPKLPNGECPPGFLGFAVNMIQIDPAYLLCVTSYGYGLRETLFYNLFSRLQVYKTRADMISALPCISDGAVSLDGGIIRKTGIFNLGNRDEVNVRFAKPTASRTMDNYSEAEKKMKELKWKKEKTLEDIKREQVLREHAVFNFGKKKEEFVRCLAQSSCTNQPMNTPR

How the values were obtained:
Assay in all cases: two-hybrid; GAL4-AD (pGADT7) and GAL4-BD (pGBKT7) fusions in yeast strain PJ694a; growth on SD-TLH, 20 mM 3-AT
[1] = molecular target: DMS3 (yeast two-hybrid fusion) (Arabidopsis thaliana) (UniProt Q94A79)
[2] = molecular target: T1, MORC2 (yeast two-hybrid fusion) (Arabidopsis thaliana) (UniProt Q5FV35)
T1 sequence: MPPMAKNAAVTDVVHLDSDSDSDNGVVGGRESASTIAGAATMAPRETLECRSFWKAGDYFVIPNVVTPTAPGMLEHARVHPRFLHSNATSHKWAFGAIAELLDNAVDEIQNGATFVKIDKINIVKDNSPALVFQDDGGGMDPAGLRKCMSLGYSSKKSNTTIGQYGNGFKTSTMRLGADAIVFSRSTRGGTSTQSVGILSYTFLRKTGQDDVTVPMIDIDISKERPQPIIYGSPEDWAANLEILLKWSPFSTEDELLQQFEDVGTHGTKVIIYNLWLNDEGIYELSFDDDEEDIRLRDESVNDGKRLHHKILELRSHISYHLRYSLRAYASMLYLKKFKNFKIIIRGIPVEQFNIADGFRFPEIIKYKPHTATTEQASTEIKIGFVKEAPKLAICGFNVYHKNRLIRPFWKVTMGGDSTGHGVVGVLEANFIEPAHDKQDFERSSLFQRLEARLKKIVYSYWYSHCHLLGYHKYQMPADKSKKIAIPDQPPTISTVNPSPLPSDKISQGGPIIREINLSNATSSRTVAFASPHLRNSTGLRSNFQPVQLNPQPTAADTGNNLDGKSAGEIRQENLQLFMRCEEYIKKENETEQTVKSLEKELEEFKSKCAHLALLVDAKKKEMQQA

[3] = molecular target: T2, MORC6 (yeast two-hybrid fusion) (Arabidopsis thaliana) (UniProt Q56Y74)
T2 sequence: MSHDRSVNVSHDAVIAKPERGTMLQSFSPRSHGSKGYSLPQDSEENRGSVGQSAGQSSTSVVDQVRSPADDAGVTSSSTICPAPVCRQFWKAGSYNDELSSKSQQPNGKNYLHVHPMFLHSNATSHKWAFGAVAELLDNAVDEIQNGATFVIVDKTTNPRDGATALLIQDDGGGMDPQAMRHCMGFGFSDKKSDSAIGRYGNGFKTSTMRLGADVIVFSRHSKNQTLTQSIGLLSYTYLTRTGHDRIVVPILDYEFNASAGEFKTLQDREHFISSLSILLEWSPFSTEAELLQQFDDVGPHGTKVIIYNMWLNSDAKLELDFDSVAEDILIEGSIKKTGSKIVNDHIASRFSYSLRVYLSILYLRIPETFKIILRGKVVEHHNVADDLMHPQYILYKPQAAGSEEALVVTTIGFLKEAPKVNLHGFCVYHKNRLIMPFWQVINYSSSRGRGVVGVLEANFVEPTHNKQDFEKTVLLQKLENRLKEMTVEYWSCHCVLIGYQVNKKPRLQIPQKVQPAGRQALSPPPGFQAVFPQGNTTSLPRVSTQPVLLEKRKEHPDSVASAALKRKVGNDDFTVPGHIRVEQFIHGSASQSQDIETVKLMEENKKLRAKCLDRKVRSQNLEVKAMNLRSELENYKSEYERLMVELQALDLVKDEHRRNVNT

B1: SUVH2 (yeast two-hybrid fusion) (protein, UniProt O22781 1-651)
chain: MSTLLPFPDLNLMPDSQSSTAGTTAGDTVVTGKLEVKSEPIEEWQTPPSSTSDQSANTDLIAEFIRISELFRSAFKPLQVKGLDGVSVYGLDSGAIVAVPEKENRELIEPPPGFKDNRVSTVVVSPKFERPRELARIAILGHEQRKELRQVMKRTRMTYESLRIHLMAESMKNHVLGQGRRRRSDMAAAYIMRDRGLWLNYDKHIVGPVTGVEVGDIFFYRMELCVLGLHGQTQAGIDCLTAERSATGEPIATSIVVSGGYEDDEDTGDVLVYTGHGGQDHQHKQCDNQRLVGGNLGMERSMHYGIEVRVIRGIKYENSISSKVYVYDGLYKIVDWWFAVGKSGFGVFKFRLVRIEGQPMMGSAVMRFAQTLRNKPSMVRPTGYVSFDLSNKKENVPVFLYNDVDGDQEPRHYEYIAKAVFPPGIFGQGGISRTGCECKLSCTDDCLCARKNGGEFAYDDNGHLLKGKHVVFECGEFCTCGPSCKSRVTQKGLRNRLEVFRSKETGWGVRTLDLIEAGAFICEYAGVVVTRLQAEILSMNGDVMVYPGRFTDQWRNWGDLSQVYPDFVRPNYPSLPPLDFSMDVSRMRNVACYISHSKEPNVMVQFVLHDHNHLMFPRVMLFALENISPLAELSLDYGLADEVNGKLAICN
binding [1]: binds
binding [2]: no binding
binding [3]: no binding
